Experiment: Stability of activity in 50% aqueous ethanol, room temperature, 16 hours; storage and methanol stability
Conditions: for activity remaining / conversion (thin-layer chromatographic analysis): 50% aqueous ethanol of pH 6.5 or pH 8.0, room temperature; for conversion in anhydrous methanol: room temperature
Description: This invention embraces neothramycin A and neothramycin B substances, either alone or in a mixture of them, which may be present in a dilute solution, as a crude concentrate, as a crude solid, as a purified solid, as the free acid form and in the form of a salt thereof with a metal or an organic amine. […] From the results of elemental analysis and the determination of molecular weight, it is probable that neothramycin A has an empirical formula C13 H14 N2 O4 .1/2 H2 O. This formula has been confirmed by high-resolution mass-spectrometry (Found: m/e 262.0934, Calcd. mol. wt. for C13 H14 N2 O4 262.0952). […] Neothramycin B has the empirical formula: C13 H14 N2 O4 .1/2 H2 O. This formula has been confirmed by high-resolution mass-spectrometry (Found: m/e 262,0939, Calcd. mol. wt. for C13 H14 N2 O4, 262.0952).
But, neothramycin A and B are unstable in 50% aqueous ethanol of pH 2.5 and the activities are reduced to 25% and 22%, respectively, at room temperature for 16 hours. […] Methylneothramycin A is crystallized from a mixture of acetone and benzene, colorless microcrystals, m.p. 137°-140° C. (dec.); [α]D^26 +640° (C, 0.24, dioxane), MS, m/e 276.1089 (Calcd. mol. wt. for C14 H16 N2 O4, 276.1108). Methylneothramycin B is obtained as a colorless powder, m.p. 61°-69° C. (dec.); [α]D^26 +778° (C, 0.22, dioxane), MS, m/e 276.1071. Mild hydrolysis of methylneothramycin A or B in 0.01N HCl-dioxane (1:1 in volume) at room temperature for one hour followed by column chromatography on silica gel gives neothramycins A and B in a good yield.

Row | SMILES | activity remaining | conversion (thin-layer chromatographic analysis) | conversion in anhydrous methanol
1 | COc1cc2c(cc1O)N=C[C@@H]1CC[C@H](O)N1C2=O [neothramycin A] | 80-90% | equilibrium conversion of neothramycin A to B or B to A | easily converted to a mixture of methyl-neothramycins A
2 | COc1cc2c(cc1O)N=C[C@@H]1CC[C@@H](O)N1C2=O [neothramycin B] | 70-80% | equilibrium conversion of neothramycin A to B or B to A | easily converted to a mixture of methyl-neothramycins A
